Measured values: PubChem BioAssay AID1477 (National Center for Advancing Translational Sciences (NCATS), 2009)
Fewer than 10 of roughly 230,000 compounds were called active. The shares of active, inactive and inconclusive entries below differ from those in the screen. Calls follow the shape of the dose curve; as a rule, active = well fitted curve in the direction sought with a large enough effect; inconclusive = small, poorly fitted or top-dose-only effect, or effect the other way, or another doubt; inactive = no such curve, though single readings can be large or run the other way. No potency is given beside an inconclusive call; the fits are too rough.

What follows are molecules tested against Runt-related transcription factor 1 (Homo sapiens) + Core-binding factor subunit beta (Homo sapiens) (UniProt Q01196+Q13951) (assay: qHTS Assay for Compounds Blocking the Interaction Between CBF-beta and RUNX1 for the Treatment of Acute Myeloid Leukemia). Conditions: AlphaScreen CBFb-His/RUNX1-biotin binding, biochemical; activity, negative = inhibition: at 59.8 µM (top of the series) unless noted.
UniProt Q01196, sequence (Q01196 whole entry, looked up): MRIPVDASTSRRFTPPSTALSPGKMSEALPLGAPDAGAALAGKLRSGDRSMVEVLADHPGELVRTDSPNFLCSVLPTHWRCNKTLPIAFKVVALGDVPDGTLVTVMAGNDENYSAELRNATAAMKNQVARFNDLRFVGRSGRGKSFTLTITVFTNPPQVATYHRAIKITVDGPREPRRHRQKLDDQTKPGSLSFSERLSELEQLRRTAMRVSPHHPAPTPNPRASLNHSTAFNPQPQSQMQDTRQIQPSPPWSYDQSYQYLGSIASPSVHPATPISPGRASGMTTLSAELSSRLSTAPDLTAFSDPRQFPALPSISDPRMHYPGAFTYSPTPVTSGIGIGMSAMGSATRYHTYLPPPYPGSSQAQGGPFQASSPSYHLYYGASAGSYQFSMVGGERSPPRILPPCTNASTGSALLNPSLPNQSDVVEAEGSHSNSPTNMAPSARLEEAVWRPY
UniProt Q01196, sequence (Q13951 whole entry, looked up): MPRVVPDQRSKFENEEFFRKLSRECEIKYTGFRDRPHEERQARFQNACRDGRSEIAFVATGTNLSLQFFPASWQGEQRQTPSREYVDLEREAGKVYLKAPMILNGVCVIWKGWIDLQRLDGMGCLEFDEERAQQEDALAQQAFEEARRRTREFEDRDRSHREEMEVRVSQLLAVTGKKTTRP
Outline: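 AlphaScreen binding: CBFb-His and RUNX1-biotin (30 nM each) preincubated 20 min, compound added for 15 min, then nickel and streptavidin beads for 90 min, all at room temperature. Disruption of the interaction by any mechanism counts as activity.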
For activity, negative = inhibition in this document: % of control where 0% means no effect.

| Compound | Potency | activity, negative = inhibition |
| --- | --- | --- |
| CC1CC1C(=O)OCC(=O)Nc1ccccc1Oc1ccccc1 (centres undefined) | inconclusive [activator, single point] | – |
| CCCCCC(=O)Nc1nc(C)c(-c2csc(Nc3cc(Cl)ccc3C)n2)s1 | inconclusive [inhibitor, single point] | – |
| C(=C\c1nccc2c1[nH]c1ccccc12)/c1ccccc1 | inconclusive [activator, partial curve] | – |
| CC[n+]1c(C)sc2cc(C)ccc21 | – | inactive: -5.32% |
| O=C(Cn1nnc(-c2ccccc2)n1)NNC(=O)c1ccc(Br)cc1 | inconclusive [inhibitor, single point] | – |
| CCOc1ccc(/C=C/C(=O)c2cc(Br)ccc(=O)c2O)cc1 | inconclusive [inhibitor, single point] | – |
| O=C1CC(c2cccs2)CC2=C1C(c1ccccc1)n1ncnc1N2 (centres undefined) | – | inactive: 8.14% |
| C(=C\c1cccc2ccccc12)/c1nnc(-c2cccs2)o1 | inconclusive [activator, partial curve] | – |
| COc1ccc(/C=C/C(=O)NC2=NCCS2)cc1OC | – | inactive: -16.8% |
| O=C(N/N=C/c1ccccn1)c1cc(-c2ccccc2Cl)n[nH]1 | inconclusive [inhibitor, partial curve] | – |
| CCOc1cc(N2CCOCC2)c(OCC)cc1NS(=O)(=O)c1ccc(Cl)s1 | inconclusive [inhibitor, single point] | – |
| C=CCn1c(COc2ccc(Cl)cc2)nnc1SCC(=O)c1c(N)n(C)c(=O)n(C)c1=O | – | inactive: 9.84% |
| O=C1CC(=O)N(Cc2ccco2)C(=O)N1 | inconclusive [inhibitor, partial curve] | – |
| CCOc1ccc(N=C2NC(=O)S/C2=C\c2ccc(Cl)cc2)cc1 | – | inactive: 2.8% |
| Cc1ccc(-c2[nH]nc(N)c2N=Nc2cccc(Cl)c2C)cc1 | inconclusive [inhibitor, single point] | – |
| Cc1onc(-c2ccccc2)c1C(=O)NC(=S)NNC(=O)c1cc(-c2ccc(F)cc2)n[nH]1 | inconclusive [inhibitor, partial curve] | – |
| COc1ccc(-c2c/c(=N\c3nc(-c4ccccc4)c(C)s3)c3ccccc3o2)cc1O | inconclusive [inhibitor, single point] | – |
| O=[N+]([O-])c1cc(CN2CCN(c3cccc(C(F)(F)F)c3)CC2)c2cccnc2c1O | inconclusive [inhibitor, partial curve] | – |
| CC1CCN(CCCOc2ccc(Br)cc2Cl)CC1 | – | inactive: 0.189% |
| Cc1cccc(C2=NN(c3ccccc3)[C@H](CO)[C@H]2C)c1 | inconclusive [activator, partial curve] | – |
| Cc1ccc(OCc2nc(C#N)c(NCc3ccc4c(c3)OCO4)o2)cc1 | inconclusive [inhibitor, single point] | – |
| CC(/C=N/NC(=O)CNc1n[nH]c(=O)[nH]c1=O)c1ccccc1 (centres undefined) | inconclusive [inhibitor, partial curve] | – |

| Compound | Potency | activity, negative = inhibition |
| --- | --- | --- |
| Cc1cccc(NC(=S)N/N=C/c2ccc([N+](=O)[O-])s2)c1 | inconclusive [inhibitor, partial curve] | – |
| COc1c(OC(C)=O)ccc(/C=C/c2ccc3cccc(OC)c3n2)c1[N+](=O)[O-] | – | inactive: -19.7% |
| Cc1ccc(N(CC(=O)Nc2cccc(C)c2)S(=O)(=O)c2cccc3nonc23)cc1 | inconclusive [inhibitor, single point] | – |
| CN(c1ccccc1)c1ccc(/C=C(\CCC(=O)O)c2nc3ccccc3s2)cc1[N+](=O)[O-] | inconclusive [inhibitor, single point] | – |
| CC1CCCCC1NC(=O)C1CCN(S(=O)(=O)c2ccc3c(c2)CCC(=O)N3)CC1 (centres undefined) | – | inactive: -2.38% |
| Nc1cccc2c1C(=O)N(Cc1cccc(Cl)c1)C2=O | inconclusive [activator, single point] | – |
| O=C(c1ccc(SCc2cccc(Br)c2)c([N+](=O)[O-])c1)N1CCN(c2ccccn2)CC1 | inconclusive [inhibitor, partial curve] | – |
| COc1ccc(-c2csc(NC(=O)c3ccc(N4C(=O)CCC4=O)cc3)n2)cc1 | – | inactive: -1.01% |
| O=C(NCc1ccco1)c1c2c(nc3ccccc13)CCC2 | inconclusive [inhibitor, single point] | – |
| CN(C)S(=O)(=O)c1cccc(NC(=S)N/N=C/c2cc(Br)ccc2O)c1 | inconclusive [inhibitor, single point] | – |
| CCN(c1ccccc1)c1nc2ccsc2c(=O)s1 | inconclusive [activator, partial curve] | – |
| CCN1/C(=C/c2ccc3cc(C)cc(C)c3[n+]2CC)Sc2cc(C)ccc21 | inconclusive [inhibitor, partial curve, poor fit] | – |
| O=C(Cn1cnc2ccccc2c1=O)N1CCN(Cc2ccccc2)CC1 | – | inactive: 3.22% |
| COc1ccc2nc(N3CCCC3)c(C#N)cc2c1 | inconclusive [activator, partial curve] | – |
| CC(C)C(NC(=O)OCc1ccccc1)C(=O)NCc1ccc(C(=O)O)cc1 (centres undefined) | – | inactive: 1.97% |
| CN(C)c1ccc(/C=C/C(=O)c2cc(Cl)ccc2O)cc1 | inconclusive [inhibitor, partial curve] | – |
| Clc1cccc(Cl)c1CNc1ccc(N2CCCC2)cc1 | inconclusive [inhibitor, partial curve] | – |
| CN(c1ccccc1)c1ccc(/C=C(\C#N)c2nnc3n2CCCCC3)cc1[N+](=O)[O-] | inconclusive [inhibitor, partial curve] | – |
| Cc1cccc(NC(=O)Cn2nnc(-c3ccc(CN4CCCC4)cc3)n2)c1C | – | inactive: -1.86% |
| CC(C)S(=O)(=O)c1cnc(-c2ccccn2)nc1N | inconclusive [inhibitor, single point] | – |
| CCOC(=O)c1nc2sc3c(c2c(=O)[nH]1)CCCC3 | inactive | – |
| Nc1ncnc2c1cnn2-c1ccccc1 | inconclusive [inhibitor, single point] | – |
